The values that follow come from PubChem BioAssay AID463173 (ICCB-Longwood Screening Facility, Harvard Medical School, 2010).

The whole screen tested about 52,000 compounds, of which about 4,300 (8.3%) were called active. Rule as the data show it: active = survival mostly below about 52% (no sharp cut-off); inactive = mostly above about 56%. Some of the results follow.

The test system of this experiment is DeltatarO mutant. The experiment can be described thus: S. aureus survival, RN4220 and DeltatarO strains – OD600, teichoic acid synthesis inhibitors, primary screen (AID 463173). The conditions noted are these: S. aureus RN4220 wild type/DeltatarO growth, OD600, 18 h, stronger effect = lower value, screened at 18.75 µg/mL (by protocol).
Take `CCC(=O)Nc1ccccc1-c1nc2ccccc2n(CC(=O)c2ccc(Br)cc2)c1=O`: the survival was active: 29%.

Take `CC(C)N1CCNCC1`: the survival is inactive: 97%.

Regarding `Cc1ccc(CSc2ncccc2C(=O)O)cc1`, the survival is inactive: 87%.

For the compound `Cc1ccc(S(=O)(=O)N2CCCc3cc(NC(=O)c4ccc(C(C)(C)C)cc4)ccc32)cc1`, the survival was inactive: 112%.

In the case of `CC(C)c1cc(=O)n2[nH]cnc2n1`, the survival is inactive: 100%.

For the compound `Cc1cc(C)c2cc(C3C(C#N)=C(N)OC4=C3C(=O)CC(C)(C)C4)c(=O)[nH]c2c1` (stereo not given), the survival was inactive: 120%.

Turning to `COc1cccc(-c2nc(CS(=O)(=O)CC(=O)NCCCc3ccccc3)c(C)o2)c1`, the survival was inactive: 79%.

As to `CCN(CC)c1ccc(NC(=O)c2sc3nc(-c4ccccc4)cn3c2C)cc1`, the survival was inactive: 97%.

On to `Cc1nc(-c2ccc(F)cc2)sc1CCNC(=O)C(=O)Nc1ccc2c(c1)OCO2`, for which the survival is inactive: 95%.

Regarding `CCCn1c2ccccc2c2cnn(CC(=O)NCCc3cc(OC)ccc3OC)c(=O)c21`, the survival is inactive: 89%.

On to `CCOC(=O)c1cccc(NC(=O)NCc2ccc3c(c2)CCN3C(=O)CC)c1`, for which the survival was inactive: 67%.

Consider `COc1ccc(CC(=O)NCCc2csc(-c3cccc(F)c3)n2)cc1OC`, for which the survival was inactive: 80%.

In the case of `Cc1ccc(C)c(NC(=O)Cn2c(=O)n(Cc3ccco3)c(=O)c3ccc(C(=O)NC4CCCC4)cc32)c1`, the survival is inactive: 95%.

With `Cc1ccc(S(=O)(=O)Nc2cc3c(C(=O)OCc4ccccc4)c(C)oc3c3ccccc23)cc1`, the survival is inactive: 65%.

As for `CCOC(=O)c1ccccc1NC(=O)c1sc2ncn(CC)c(=O)c2c1C`, the survival is inactive: 68%.

Take `O=C(Cn1c(SCCOc2ccccc2Cl)nc2ccccc21)N1CCCCC1`: the survival is active: 34%.

As for `COCCNC(=O)c1c[nH]c2ccccc2c1=O`, the survival is inactive: 81%.

Consider `CCCc1cc(=O)[nH]c(SCc2nc(-c3ccc(OC)cc3)no2)n1`, for which the survival is inactive: 92%.

For the compound `Cc1ccccc1NC(=O)Cn1c(=O)n(Cc2ccco2)c(=O)c2cccnc21`, the survival was inactive: 78%.

Consider `Cc1ccc(-c2cc(C(=O)NCCc3ccccc3)c3ccccc3n2)cc1C`, for which the survival was inactive: 88%.

For `O=C(NCc1ccc(F)cc1)c1cccc(N2CCCS2(=O)=O)c1`, the survival was inactive: 94%.

As to `O=C(NCCc1ccccc1)c1cc(-c2ccccc2)nc2n[nH]c(-c3ccccc3)c12`, the survival is inactive: 55%.

As for `CN(C)c1ccc(/C=C(\C#N)c2nc3ccccc3c(=O)[nH]2)cc1`, the survival is inactive: 69%.

For `CN(C(=S)S)C1CCS(=O)(=O)C1` (stereo not given), the survival was inactive: 95%.

For `CCN1CCN(CC2CCCCC2)CC1`, the survival is inactive: 90%.

As to `CC(C)c1ccc(NC(=O)CNC(=O)Cn2ccc3ccccc3c2=O)cc1`, the survival was inactive: 62%.

In the case of `O=C(c1ccc(CSc2nc3ccncc3n2Cc2ccccc2F)cc1)N1CCCCC1`, the survival is inactive: 76%.

Regarding `CCOc1ccc(NC(=O)NCCCN2CCN(c3ccc(OC)cc3)CC2)cc1`, the survival was inactive: 94%.

On to `CCOc1ccccc1Nc1sc(C(=O)c2ccc(Cl)cc2)c(N)c1C#N`, for which the survival is inactive: 94%.

With `CCC(C)NS(=O)(=O)c1ccc(S(=O)(=O)N(Cc2ccc(C)o2)C2CCCC2)cc1` (stereo not given), the survival is inactive: 88%.

Regarding `Fc1ccc(C2=NC(c3cccc(C(F)(F)F)c3)=Nc3ccccc3N2)cc1`, the survival was inactive: 75%.

Regarding `O=c1[nH]ncc(NCCN2CCOCC2)c1Cl`, the survival is inactive: 101%.

Take `CCC(=O)N1CCc2cc(S(=O)(=O)CCC(=O)N(C)c3ccc(OC)cc3)ccc21`: the survival was inactive: 90%.

Regarding `Cc1cc(Nc2cccc(Cl)c2)nc2ccc(NC(=O)c3ccc(F)cc3Cl)cc12`, the survival was inactive: 102%.

For the compound `O=C(Nc1ccccc1C(=O)OCc1cc(=O)n2ccsc2n1)c1cccc(F)c1`, the survival is inactive: 109%.

Turning to `Cc1ccc2nc(/C(C#N)=C/c3ccc(-c4ccc(F)cc4F)o3)[nH]c2c1`, the survival was active: 11%.

`COc1cc2c(cc1OC)C(c1cc3cc4c(cc3[nH]c1=O)OCO4)N(C(=O)C1CCC1)CC2` (stereo not given): the survival was inactive: 97%.

As for `CCC1(CC)Cc2ccccc2C(=C(C#N)C#N)N1`, the survival is inactive: 86%.

On to `CC1CCCN(S(=O)(=O)c2ccc(S(=O)(=O)N(Cc3cccs3)Cc3cccs3)cc2)C1` (stereo not given), for which the survival was inactive: 100%.

For `Cc1ccc(Cl)cc1NC(=O)C1CCCN(S(=O)(=O)c2c(C)noc2/C=C/N(C)C)C1` (stereo not given), the survival was inactive: 51%.

For the compound `COC(=O)c1c(NC(=O)CCCOc2ccccc2)sc2c1CCC(C)C2` (stereo not given), the survival was active: 2%.

For the compound `O=C(CCC1N=C2c3ccccc3N=C(SCc3cccc(Cl)c3)N2C1=O)NCc1cccs1` (stereo not given), the survival was inactive: 86%.

With `COc1cccc(C(=O)N(Cc2cccc(Cl)c2)Cc2ccco2)c1`, the survival is inactive: 68%.

Regarding `CC(C)(C)c1ccc(OCC(=O)Nc2c(C(=O)c3ccc(F)cc3)oc3ccccc23)cc1`, the survival was inactive: 99%.

As for `CSc1cccc(NC(=O)c2ccc3c(c2)c(C)c(C)n3Cc2ccc(F)cc2)c1`, the survival is inactive: 73%.

As for `COCCN1C(=O)C2C3c4ccccc4C(c4ccccc43)C2C1=O` (stereo not given), the survival is inactive: 96%.

Turning to `CC(C)NS(=O)(=O)c1ccc(OCC(=O)N2CCN(c3ccccc3F)CC2)cc1`, the survival is inactive: 81%.

With `Cc1cc(C)c2c(CC(=O)Nc3nnc(CC(C)C)s3)coc2c1`, the survival is inactive: 93%.

Turning to `COc1ccc(CCCc2nnc(SCC(=O)Nc3ccc(C)c(C)c3)o2)cc1`, the survival was inactive: 77%.

Take `CCc1ccc(S(=O)(=O)c2cn(C)c3cc(N4CCN(CC)CC4)c(F)cc3c2=O)cc1`: the survival is inactive: 75%.

With `O=C(c1ccc(CS(=O)c2ccccc2Cl)o1)N1CCN(c2ccccc2F)CC1` (stereo not given), the survival was inactive: 84%.

As to `O=S1(=O)N=C(Nc2cccc(C(F)(F)F)c2)c2ccccc21`, the survival was inactive: 53%.

As to `COc1ccccc1-c1c(C)nn2c(C(F)(F)F)cc(-c3ccccc3)nc12`, the survival is inactive: 41%.

In the case of `Cc1ccc(CN2CCC(CNC(=O)Nc3c(C)cccc3C)C2)cc1` (stereo not given), the survival was inactive: 57%.

Turning to `COc1cc2nc(SCc3ccc(F)cc3)n3nc(CCn4c(C)nc5ccccc54)nc3c2cc1OC`, the survival is inactive: 82%.

With `CCOc1ccc(S(=O)(=O)N(CC(=O)NCCSCc2ccccc2)c2ccccc2)cc1`, the survival is inactive: 112%.

With `CCOc1ccccc1NC(=O)N1CCN(Cc2cc(=O)n3nc(-c4ccc(C)cc4)sc3n2)CC1`, the survival was inactive: 67%.

With `Cc1ccc(NC(=O)Cn2c(=O)nc(-c3ccccc3F)c3cc(Cl)ccc32)c(Br)c1`, the survival was inactive: 79%.

For `COc1ccc2c(c1)N(C)/C(=C1/SC(=S)N(C)C1=O)S2`, the survival is inactive: 74%.

On to `CCC(C)n1c(=N)c(S(=O)(=O)c2ccccc2)cc2c(=O)n3ccccc3nc21` (stereo not given), for which the survival is inactive: 69%.

For `Cc1nn(C)c2c1c(-c1ccccc1)cc(=O)n2CC(=O)NC(C)(C)C`, the survival was inactive: 113%.

Consider `COc1ccc(C)cc1NC(=O)COCc1cc(-c2ccc(F)cc2)on1`, for which the survival is inactive: 105%.

Regarding `COC(=O)CC(=O)CSc1nc(C)cc(C)c1C#N`, the survival is inactive: 80%.

For `Cc1ccc(N2CCN(S(=O)(=O)c3c(C)[nH]c(=O)[nH]c3=O)CC2C)cc1` (stereo not given), the survival is inactive: 95%.

Regarding `Cc1nn(Cc2noc(C(=O)NC(C)c3ccccc3)n2)c(C)c1Br` (stereo not given), the survival is inactive: 69%.

For the compound `COc1cc(Cl)c(C)cc1NC(=O)Cn1cc(S(=O)(=O)N2CCC(C)CC2)c2ccccc2c1=O`, the survival is inactive: 117%.

Consider `CCOC(=O)c1cc(-c2ccccc2)n(CC(=O)Nc2ccc(CC)cc2)c1C`, for which the survival was inactive: 101%.

As for `CCCN(CCC)c1nn2c(=O)c(C(=O)NCc3cc(Br)ccc3OC)cnc2s1`, the survival is inactive: 84%.

Turning to `Cc1ccc(CNC(=O)CCS(=O)(=O)c2cc3c(cc2C)NC(=O)CO3)cc1`, the survival is inactive: 82%.

As to `O=C(O)CC1S/C(=N/N=C2CCCC2)NC1=O` (stereo not given), the survival is inactive: 80%.

Take `O=C(CSc1nc2c(oc3ccccc32)c(=O)n1Cc1ccco1)Nc1ccccc1`: the survival is inactive: 114%.

`CCCSC1=NC2(CCN(C(=O)NC3CCCCC3)CC2)N=C1c1ccc(Cl)cc1`: the survival is inactive: 85%.

`Cc1ccc(CN2CCCN(Cc3c(C)cc(C)cc3C)S2(=O)=O)cc1`: the survival was inactive: 91%.

For the compound `Cc1cccc(CSc2nc(-c3cccc(C)c3)nc3c2Cc2c(CO)cnc(C)c2O3)c1`, the survival is inactive: 52%.

With `CC(C)c1ccc(NC(=O)CSC2=Nc3ccccc3C3=NC(CCC(=O)NCc4ccco4)C(=O)N23)cc1` (stereo not given), the survival is inactive: 80%.

In the case of `COc1ccc(OC)c(CCNC(=O)CCn2c(=O)c3cccn3c3ccc(F)cc32)c1`, the survival was inactive: 58%.

Take `Cc1cccc(S(=O)(=O)c2cn(C)c3cc(N4CCN(c5ccc(F)cc5)CC4)c(F)cc3c2=O)c1`: the survival is inactive: 71%.

In the case of `CCc1nnc(SCC(=O)N(CC)c2ccccc2)c2cc3oc(C)cc3n12`, the survival is inactive: 89%.

Take `CC(=O)N1CCCc2cc(S(=O)(=O)N3CCC(C(=O)NCc4ccccc4)CC3)ccc21`: the survival is inactive: 69%.

In the case of `Cc1ccc(Cl)cc1N1CCN(C(=O)c2cc(S(=O)(=O)N3CCCC3)c[nH]2)CC1`, the survival was inactive: 88%.

For `CCc1ccc(NC(=O)C2CCCN(S(=O)(=O)c3ccc(F)cc3)C2)cc1` (stereo not given), the survival is inactive: 71%.

For `CCOC(=O)CNC(c1ccccc1)c1cc(Br)ccc1NC(=O)c1cccc(Cl)c1` (stereo not given), the survival was inactive: 61%.

For the compound `Cc1ccc(CN2CCSc3ccc(C(=O)Nc4ccc(C)cc4)cc32)cc1`, the survival is inactive: 105%.

With `CCCCNC(=O)c1ccccc1NC(=O)CN(c1ccccc1)S(=O)(=O)N(C)C`, the survival was inactive: 106%.

Consider `CCN(CC)c1ccc(NC(=O)CNCC2CCCCC2)c(C)c1`, for which the survival is inactive: 86%.

As to `O=C(CSc1nc(=O)n(Cc2ccco2)c2c1CCC2)Nc1ccccc1C(F)(F)F`, the survival is inactive: 90%.

Consider `Cc1ccc2c(=O)cc(C(=O)Nc3ccc(S(=O)(=O)N4CCCCCC4)cc3)oc2c1`, for which the survival was inactive: 106%.

Turning to `CN(C)S(=O)(=O)c1ccc2c(c1)nnn2CCNC(=O)Nc1ccc(Cl)cc1`, the survival is inactive: 79%.

As for `Cc1ccc(S(=O)(=O)c2nnn3c2nc(NC2CCCCC2)c2sccc23)cc1`, the survival is inactive: 109%.

As for `Cc1ccc(Cc2cn3cc(-c4ccccc4)nc3s2)cc1`, the survival is inactive: 66%.
